Key:
[1] = test system: human IR-A phosphorylation; test: cell based IR-A phosphorylation ELISA; details: stimulus IGF-2 (100 ng/mL)
[2] = target: T1, Rat IGF-2 (Rattus norvegicus, UniProt P01346); test: direct immunosorbent assay (ELISA) binding titration; details: FIG. 1F
T1 construct: insulin-like growth factor-2 (IGF-2; a 67 amino-acid polypeptide)
Procedure: (§1) Fully human IgG1 antibodies that bound with high affinity to IGF-1 are also tested for binding to human IGF-1 in direct immunosorbent assays (ELISA). Assays are performed by coating human IGF-1 (R&D Systems, No. 291-G1) to 96-well Maxisorb plates at a concentration of 0.5 μg/ml overnight at 4° C. (100 μl/well). Coating buffer alone is used as a control for unspecific binding. Wells are then washed once with washing buffer (1×TBS-T) and residual binding sites are blocked with 200 μl blocking buffer for 1 hour at room temperature on an orbital shaker followed by a further wash cycle. Serial three-fold dilutions of each test antibody in blocking buffer are prepared directly on the coated plates. Typical concentrations used are 50, 16.6, 5.6, 1.8, 0.6, 0.2, and 0.07 ng/ml. Blocking buffer alone is used as a positive control. The plates are then incubated for 2 hours at room temperature with agitation. After three wash cycles 100 μl/well of HRPO-conjugated anti-human IgG secondary reagent (Jackson ImmunoResearch Inc.) diluted in blocking buffer is added to all wells. After 2 hours incubation at room temperature with agitation the plates are washed three-times and 100 μl/well of TMB substrate solution (equal amounts of solution A and B) are pipetted into all wells. The plates are incubated for 10-20 min at RT with agitation and then the reaction is stopped by addition of 100 μl/well 1 M phosphoric acid. The absorbance is measured at a wavelength of 450 nm (reference 650 nm).
(§2) Binding of the fully human IGF-1 binding IgG1 antibodies to mouse IGF-1 (R&D Systems, No. 791-MG), rat IGF-1 (IBT, No. RU100), human IGF-2 (GroPep, No. FM001), mouse IGF-2 (R&D Systems, No. 792-MG), rat IGF-2 (IBT, No. AAU100), and human insulin (Roche) is also tested as described above for human IGF-1 (except that the concentration of human insulin used for coating is 3 μg/ml).

[3] = target: T2, Rat IGF-1 (Rattus norvegicus, UniProt P08025); test: as above; details: FIG. 1C
T2 construct: Insulin-like growth factor-1 (IGF-1; a 70 amino-acid polypeptide)
Procedure: as §1, §2

[4] = target: T3, Mouse IGF-2 (Mus musculus, UniProt P09535); test: as above; details: murine IGF-2; FIG. 1E
T3 construct: insulin-like growth factor-2 (IGF-2; a 67 amino-acid polypeptide)
Procedure: as §1, §2

[5] = target: T4, Mouse IGF-1 (Mus musculus, UniProt P05017); test: as above; details: FIG. 1B
T4 construct: Insulin-like growth factor-1 (IGF-1; a 70 amino-acid polypeptide); purchased R&D Systems 791-MG
Procedure: as §1, §2

[6] = test system: human IGF-1R phosphorylation; test: cell based IGF-1R phosphorylation ELISA
Procedure: Mouse fibroblast cell lines recombinantly expressing human IGF-1R or human IR-A are maintained in DMEM supplemented with 10% heat inactivated FCS, 1 mM sodium pyrovate, 0.075% sodium bicarbonate, MEM NEAA, and 0.3 μg/ml puromycin at 37° C. and 5% CO2 in a humidified incubator. Cells are detached with trypsin/EDTA, resuspended in growth medium and diluted to 100,000 cells/mL. 100 μL (10,000 cells) are seeded in wells of a sterile 96-well plate and incubated overnight in a humidified incubator at 37° C. and 5% CO2. The cells are then starved with 100 μL/well assay medium (DMEM supplemented with 0.5% heat inactivated FCS; 1 mM sodium pyrovate, 0.075% sodium bicarbonate, and MEM NEAA) and incubated overnight as before. A range of test antibody concentrations prepared in assay medium is added to the cells, all samples are prepared in triplicate to determine the standard deviation for each assay condition. An IGF-1R antibody, αIR-3 (Calbiochem, No. GR11L) is also tested in these experiments. IGF-1 (20 ng/mL final concentration), IGF-2 (100 ng/mL final concentration), or human serum (20% final concentration) is then added and the plates incubated for 30 min in the humidified incubator. Cells are fixed by replacing the growth medium with 4% formaldehyde in PBS for 20 min at RT. After two wash cycles with 300 μL/well wash buffer (PBS with 0.1% Triton X-100) for 5 min (with agitation) the cells are quenched with 100 μL/well 1.2 wt % hydrogen peroxide in wash buffer for 30 minutes at RT. Cells are washed again with 300 μL/well washing buffer and blocked with 100 μL/well blocking buffer (5% BSA in wash buffer) for 60 min at RT with agitation. Blocking buffer is removed and 50 μl/well primary phopho-IGF-I receptor β (tyr1135/1136)/insulin receptor β (tyr1150/1151) antibody (Cell Signaling, No. 3024) diluted 1:1000 in blocking buffer is added. Plates are incubated overnight at 4° C. with agitation then washed three times as above and 50 μL/well anti-rabbit IgG goat immunoglobulins conjugated with horseradish peroxidase (Dako, No. P0448) diluted 1:500 in blocking buffer is added. After a 60 min incubation at RT with agitation the wells are washed twice with washing buffer as above and once with 300 μL PBS. 100 μL/well TMB substrate solution (Bender MedSystems, No. BMS406.1000) is added to the wells and incubated for 10 min with agitation, following this the reaction is stopped by adding 100 μL/well 1 M phosphoric acid and the absorbance read using a photometer (OD 450 nm, OD 650 nm as reference). Inhibition of IGF-1R or IR-A phosphorylation IC50 values are determined by graphical analysis. […]
The level of IGF bioactivity in human serum or plasma samples can also be measured using the IGF-1R phosphorylation cell based ELISA.

[7] = pharmacokinetic parameters in rats (plasma sandwich ELISA); assay type: in vivo, Wistar rats; details: for AUC (0-72 h) / C(max) / CL / V(ss): first day of dosing; for t1/2φ: after last day of dosing with t(n) = 1008 hr
Procedure: Wistar rats are given five intravenous bolus administrations of 18, 52, and 248 mg/kg antibody every 72 hours. At various time points a blood sample is taken and the human antibody concentration in the plasma is determined by sandwich ELISA.

[8] = stimulus Human Serum Pooled from Healthy Donors (20%)

T2 sequence (P08025 49-118 limits assumed): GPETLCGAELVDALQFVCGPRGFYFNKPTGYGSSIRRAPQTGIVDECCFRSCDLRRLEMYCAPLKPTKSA
T4 sequence (P05017 49-118 limits assumed): as the sequence (P08025 49-118 limits assumed) above, with S69A counted along it
T1 sequence (P01346 25-91 limits assumed): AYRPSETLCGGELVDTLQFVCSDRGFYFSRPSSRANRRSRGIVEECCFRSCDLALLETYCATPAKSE
T3 sequence (P09535 25-91 limits assumed): as the sequence (P01346 25-91 limits assumed) above, with R3G, S5G counted along it

ELISA binding [2]: comparable cross-reactive binding
ELISA binding [3]: comparable cross-reactive binding
ELISA binding [4]: comparable cross-reactive binding
ELISA binding [5]: comparable cross-reactive binding
B1: 60833: fully human IgG1/Igλ anti-IGF antibody; heavy chain SEQ ID NO:39, light chain SEQ ID NO:40 (antibody, listed as Homo sapiens)
heavy: QVELVESGGGLVQPGGSLRLSCAASGFTFTSYWMSWVRQAPGKGLELVSSITSYGSFTYYADSVKGRFTISRDNSKNTLYLQMNSLRAEDTAVYYCARNMYTHFDSWGQGTLVTVSS[human IgG1 constant region left out here]
light: DIVLTQPPSVSGAPGQRVTISCSGSSSNIGSNSVSWYQQLPGTAPKLLIYDNSKRPSGVPDRFSGSKSGTSASLAITGLQSEDEADYYCQSRDTYGYYWVFGGGTKLTVLGQPKAAPSVTLFPPSSEELQANKATLVCLISDFYPGAVTVAWKGDSSPVKAGVETTTPSKQSNNKYAASSYLSLTPEQWKSHRSYSCQVTHEGSTVEKTVAPTECS
% Remaining Phosphorylation at 15 μg/mL (100 nM) Inhibitor [1]: 6%
% Remaining Phosphorylation at 15 μg/mL (100 nM) Inhibitor [6, 8]: 5%
IC50 [6, 8]: 0.25 µg/mL
% Remaining Phosphorylation at 15 μg/mL (100 nM) Inhibitor ([6]; stimulus IGF-1 (20 ng/mL)): 0%
% Remaining Phosphorylation at 15 μg/mL (100 nM) Inhibitor ([6]; stimulus IGF-2 (100 ng/mL)): 7%
AUC (0-72 h) ([7]; 18 mg/kg i.v. bolus): 15500 µg·h/mL
C(max) ([7]; 18 mg/kg i.v. bolus): 531 µg/mL
CL ([7]; 18 mg/kg i.v. bolus): 22.9 (mL/day)/kg
V(ss) ([7]; 18 mg/kg i.v. bolus): 0.0681 L/kg
t1/2φ ([7]; 18 mg/kg): 210 h
AUC (0-72 h) ([7]; 52 mg/kg i.v. bolus): 40200 µg·h/mL
C(max) ([7]; 52 mg/kg i.v. bolus): 1700 µg/mL
CL ([7]; 52 mg/kg i.v. bolus): 28.7 (mL/day)/kg
V(ss) ([7]; 52 mg/kg i.v. bolus): 0.0763 L/kg
t1/2φ ([7]; 52 mg/kg): 197 h
AUC (0-72 h) ([7]; 248 mg/kg i.v. bolus): 120000 µg·h/mL
C(max) ([7]; 248 mg/kg i.v. bolus): 5560 µg/mL
CL ([7]; 248 mg/kg i.v. bolus): 37.3 (mL/day)/kg
V(ss) ([7]; 248 mg/kg i.v. bolus): 0.0654 L/kg
t1/2φ ([7]; 248 mg/kg): 255 h

— patent publication US11299538B2, “Anti-IGF antibodies” (Boehringer Ingelheim International GmbH, priority 2008, dated 2022)
